The other results are listed elsewhere or left out.
system: PfSIP2 AP2 domain 1 (GST-tagged); test: gcPBM binding intensity (ln(normalized median fluorescence intensity)); higher = stronger DNA binding
Summary of the method: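 An Agilent 4 × 180k array of primer-extended double-stranded 36-bp intergenic genomic probes, with negative controls, was incubated for 1 h with GST-tagged P. falciparum DNA-binding domains expressed in E. coli. Alexa488 anti-GST antibody detected bound protein, scanned at 488 nm. Binding intensity is the highest Masliner-normalised natural-log median intensity across replicate spots of either probe orientation.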

Sequence | gcPBM binding intensity (ln)
TATTTTTTCTTAAACACACACATATAGATTTATAAC [CACACA_site7354] | 7.26
TGTCCTTATTGGCACACACACATATAAGAAATTTAA [CACACA_site5724] | 7.23
TTTTTTAAAGCCTGTTCATCATCCTTACCTATCAAC [GTGCAC_negctrl_site452] | 6.81
CTAATTCGTATATGCTGTACCTTTTTCTTACGACTA [XGTACX_site4392] | 6.93
ATATGGAATGATCATAGTACATAATTTAAAATTTTA [XGTACX_site3568] | 6.74
ACCCTATTTATATATACACACACATATATAAATAAA [CACACA_site8980] | 7.52
AACATATATAATATTTGTACTTATATACAAAATATG [XGTACX_site7502] | 6.84
ATAGGATGTTTGCACTGTACCAAAAAATGAGCTGCA [XGTACX_site2825] | 8.09
ATCAGATATATATATTGTACATTTATATATAAATCA [XGTACX_site1960] | 7.15
ATTAAAAATTATATTTTATAAAAATTAAAAGAAATA [CACACA_negctrl_site65] | 6.98
AAAGTATACAATGACGCATGCATATATATATACATA [TGCATGCA_site429] | 6.81
ATTTATTTATCTAGCTATTCACCATTTTCTTTTGTT [CACACA_negctrl_site1259] | 6.61
TATATATATATACATACATGCATATATATATATATA [TGCATGCA_site513] | 9.32
AATACAATAAAAAAAAGTACACATGTATAAAAAATT [XGTACX_site8270] | 7.05
TGTTATCAGAAAGCACGTACATATAATTATATATTC [XGTACX_site4188] | 7.23
AATATATCTTATTTAACACACACAAAGAAAATAGAA [CACACA_site9242] | 7.35
TAGAAAATCAGTTAAACACACACATAAAAAAAAAAA [CACACA_site8933] | 6.74
TTCTTATTTGTACTAGTGCAATAGAAAATAAATAAA [GTGCAC_site9731] | 8.2
TATATAATATATATATGTACACATTTGCAAACAATG [XGTACX_site6941] | 7.42
ATGAATTAATCTAATCGTACAATAAGCATTATTATA [XGTACX_site2571] | 6.73
GAATATGTAAAGAAAGGTACACATGAAAATATGTGT [XGTACX_site446] | 6.98
TGTACCTACAAAATATGATATATTTTTATAAATTGT [XGTACX_negctrl_site498] | 6.89
AAATATACATACATATGTACATATATATATATATAT [XGTACX_site8202] | 9.84

Sequence | gcPBM binding intensity (ln)
ATAGTTAAAAAAAAAAAAAAAAAAAAAAGAGAGAGA [CACACA_negctrl_site1307] | 7.19
ACAATAAAGAACAGTATGCACTTTTATGCATGCGTA | 8.94
CTTTTTCTTTTCCGGCGTACAGACTTAGTAGTAGAT [XGTACX_site2268] | 7.16
TACATGCAAAAAATTCCACACACACCCCCACATATA [CACACA_site8329] | 7.79
TAAAATATAGGAAATACATGCATATTAAATATTCCT [TGCATGCA_site1057] | 6.91
TACTTCATTCATTTTACACACATATAAACCCTTTTA [CACACA_site3229] | 7.08
ACTAATACATAAAAAAGTACAAATATGAGTATTAAC [XGTACX_site7281] | 7.12
TATATAGCTAAAAACACACAAATATGTACACATAAA [CACACA_site7665] | 6.98
AAAAAAAAAAAAAGTACACACATACAGATAAATATA [CACACA_site5067] | 7.62
ATAAATTGATTCAACACACACATATGTAGGAAGTTA [CACACA_site3253] | 6.88
TTTTTTAAATTGGTAGTGCAATATGATTGAACAAAA [GTGCAC_site9715] | 8.19
AAATTATTAAAAAAGTGTACATATTTTTATAATACC [XGTACX_site5610] | 7.4
ATAAGCATACATATTACACACATATAACATCTATAT [CACACA_site7219] | 7.08
GGGTATACCAATATAACACACATATATATATAATAT [CACACA_site450] | 7.1
TTAATCAAATTACTATGTACATAAAACATATAAGAA [XGTACX_site381] | 7.22
TATTTTTTTTCAAAAAAGTTTATTTAGAACTAAATA [XGTACX_negctrl_site487] | 6.79
TAAAAAAAAACTCATGCACACAATATTATGAAAAAG [CACACA_site665] | 7.42
AAATATTATGTACGCACACACATTTTTAATATATAA [CACACA_site3851] | 7.37
TTATTTACAACTTCAAATTATGTGTAATACTACTAT [CACACA_negctrl_site741] | 6.91
TTTTTTTCTTTTTACATACACACAAAAAAATAAAAT [CACACA_site580] | 7.17
AGCACATTATTCAAAAGTACAAATAGGTATTGTATA [XGTACX_site6107] | 6.96
AATATAAAAAAAAAAAAAAAAAAAAAAAAAAAGACA [CACACA_negctrl_site983] | 6.84
